Results are given in words; binding and its absence hold for the method and conditions named. Binding seen in cells or lysates may run through a third protein. Some entries that bind do so weakly or less than the wild type.
Legend:
[1] = target: Ikaros (Ik1 isoform) constitutively expressed in ILC87 cells (UniProt Q03267); experiment: co-IP; nuclear extracts of ILC87-Ik1-Bcl2 cells; anti-Ikaros or IgG IP; IPs and washing steps performed in the presence of 0.3 or 0.5 M NaCl
[2] = target: Ikaros (Ik1 isoform) constitutively expressed in ILC87 cells (UniProt Q03267); experiment: co-IP; nuclear extracts of ILC87-Ik1-Bcl2 cells; anti-Ikaros or IgG IP; immune complexes washed in the presence of 0.3, 0.5 or 1 M NaCl, or 1 M NaCl plus 8 M urea
[3] = target: Ikaros, endogenous in primary WT DN thymocytes (mouse (endogenous in thymocytes)) (UniProt Q03267); experiment: co-IP; ~333 μg nuclear extracts from WT CD4-CD8-CD3- (DN) thymocytes; IP with anti-Ikaros, anti-Suz12 or IgG; western blotting
[4] = target: Ik1-GST fusion protein (full-length Ikaros1 isoform) (UniProt Q03267); experiment: pull-down; GST-Ik1 or GST immobilised on glutathione agarose beads, incubated overnight at 4 °C with nuclear extracts of Ikaros-null ILC87 cells; washed 5x with RIPA buffer containing 300 mM NaCl; western blotting; only the target purified
[5] = target: Mta2 (mouse (endogenous in ILC87 cells)) (UniProt Q9R190); experiment: co-IP; nuclear extracts of ILC87-Ik1-Bcl2 cells first incubated in three consecutive steps with IgG- or anti-Mta2- and anti-Mi2β-coupled Protein A/G beads (NuRD depletion); supernatants subjected to Ikaros, Mta2, Mi2β or IgG IPs for 8 h at 4 °C; washed 5x with RIPA containing 300 mM NaCl
[6] = target: Ikaros (Ik1 isoform) constitutively expressed in ILC87 cells (UniProt Q03267); experiment: as above
[7] = target: Ikaros (Ik1 isoform) constitutively expressed in ILC87 cells (UniProt Q03267); experiment: co-IP; nuclear extracts (RIPA buffer) of ILC87-Ik1-Bcl2 cells, or of ILC87-Bcl2 cells expressing Ikaros deletion mutants; IP with anti-Ikaros, anti-Suz12, anti-Ezh2 or IgG overnight at 4 °C; washed 5x with RIPA containing 300 mM NaCl; western blotting
[8] = target: Suz12 (mouse (endogenous in ILC87 cells and thymocytes)) (UniProt Q80U70); experiment: as above
[9] = target: Ezh2 (mouse (endogenous in ILC87 cells and thymocytes)) (UniProt Q61188); experiment: as above
[10] = target: Suz12 (mouse (endogenous in ILC87 cells and thymocytes)) (UniProt Q80U70); experiment: co-IP; ~333 μg nuclear extracts from WT CD4-CD8-CD3- (DN) thymocytes; IP with anti-Ikaros, anti-Suz12 or IgG; western blotting
[11] = target: Mi2β (CHD4) (mouse (endogenous in ILC87 cells)) (UniProt Q6PDQ2); experiment: co-IP; nuclear extracts of ILC87-Ik1-Bcl2 cells first incubated in three consecutive steps with IgG- or anti-Mta2- and anti-Mi2β-coupled Protein A/G beads (NuRD depletion); supernatants subjected to Ikaros, Mta2, Mi2β or IgG IPs for 8 h at 4 °C; washed 5x with RIPA containing 300 mM NaCl

Amino acid sequences for entries named in this document (tags omitted).
UniProt Q03267: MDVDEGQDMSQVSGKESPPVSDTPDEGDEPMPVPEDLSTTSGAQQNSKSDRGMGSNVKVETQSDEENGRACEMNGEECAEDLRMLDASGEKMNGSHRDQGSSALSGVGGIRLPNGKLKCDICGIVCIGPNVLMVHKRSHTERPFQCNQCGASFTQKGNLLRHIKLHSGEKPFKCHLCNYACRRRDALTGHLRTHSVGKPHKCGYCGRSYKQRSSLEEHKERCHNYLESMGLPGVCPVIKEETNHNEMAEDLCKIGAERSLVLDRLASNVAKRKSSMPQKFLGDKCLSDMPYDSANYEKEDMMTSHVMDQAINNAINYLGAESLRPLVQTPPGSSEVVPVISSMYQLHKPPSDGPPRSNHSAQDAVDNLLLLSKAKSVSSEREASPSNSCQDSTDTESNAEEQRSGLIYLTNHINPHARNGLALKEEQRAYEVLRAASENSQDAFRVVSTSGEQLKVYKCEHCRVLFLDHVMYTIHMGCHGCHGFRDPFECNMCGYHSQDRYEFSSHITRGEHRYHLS
UniProt Q9R190: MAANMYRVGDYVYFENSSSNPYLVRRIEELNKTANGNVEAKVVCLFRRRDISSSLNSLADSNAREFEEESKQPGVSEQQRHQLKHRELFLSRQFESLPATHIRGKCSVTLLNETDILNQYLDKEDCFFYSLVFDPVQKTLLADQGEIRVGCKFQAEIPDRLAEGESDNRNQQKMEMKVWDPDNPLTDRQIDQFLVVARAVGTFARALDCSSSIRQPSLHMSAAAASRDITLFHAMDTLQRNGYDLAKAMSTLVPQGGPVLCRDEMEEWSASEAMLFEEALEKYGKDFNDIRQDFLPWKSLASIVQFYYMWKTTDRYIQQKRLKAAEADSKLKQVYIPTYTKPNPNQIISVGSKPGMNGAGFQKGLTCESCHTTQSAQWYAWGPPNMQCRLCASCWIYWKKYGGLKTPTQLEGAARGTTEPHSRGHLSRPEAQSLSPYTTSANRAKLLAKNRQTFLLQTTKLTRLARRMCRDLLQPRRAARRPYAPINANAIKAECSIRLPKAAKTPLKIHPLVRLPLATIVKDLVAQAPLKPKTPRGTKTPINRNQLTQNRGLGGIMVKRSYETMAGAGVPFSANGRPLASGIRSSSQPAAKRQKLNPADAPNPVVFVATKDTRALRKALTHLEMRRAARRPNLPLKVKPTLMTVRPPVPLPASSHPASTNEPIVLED
UniProt Q80U70: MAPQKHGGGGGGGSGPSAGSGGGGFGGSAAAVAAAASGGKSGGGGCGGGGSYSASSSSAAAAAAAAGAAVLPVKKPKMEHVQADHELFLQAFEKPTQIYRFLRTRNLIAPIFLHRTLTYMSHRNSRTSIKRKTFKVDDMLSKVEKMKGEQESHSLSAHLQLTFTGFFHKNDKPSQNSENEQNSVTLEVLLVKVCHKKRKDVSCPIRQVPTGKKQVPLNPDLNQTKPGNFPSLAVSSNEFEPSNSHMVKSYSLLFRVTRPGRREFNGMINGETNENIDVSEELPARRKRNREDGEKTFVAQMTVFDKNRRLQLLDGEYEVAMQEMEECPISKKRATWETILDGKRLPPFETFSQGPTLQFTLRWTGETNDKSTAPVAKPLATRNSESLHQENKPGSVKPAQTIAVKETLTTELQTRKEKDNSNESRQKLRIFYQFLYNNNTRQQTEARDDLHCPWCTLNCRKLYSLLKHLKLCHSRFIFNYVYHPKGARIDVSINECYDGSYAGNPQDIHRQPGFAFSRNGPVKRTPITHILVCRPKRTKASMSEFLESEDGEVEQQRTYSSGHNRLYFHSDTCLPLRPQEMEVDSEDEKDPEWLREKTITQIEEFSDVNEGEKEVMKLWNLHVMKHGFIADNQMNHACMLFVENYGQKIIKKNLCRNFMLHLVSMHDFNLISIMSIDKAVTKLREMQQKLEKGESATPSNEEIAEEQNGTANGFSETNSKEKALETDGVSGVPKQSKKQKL
UniProt Q61188: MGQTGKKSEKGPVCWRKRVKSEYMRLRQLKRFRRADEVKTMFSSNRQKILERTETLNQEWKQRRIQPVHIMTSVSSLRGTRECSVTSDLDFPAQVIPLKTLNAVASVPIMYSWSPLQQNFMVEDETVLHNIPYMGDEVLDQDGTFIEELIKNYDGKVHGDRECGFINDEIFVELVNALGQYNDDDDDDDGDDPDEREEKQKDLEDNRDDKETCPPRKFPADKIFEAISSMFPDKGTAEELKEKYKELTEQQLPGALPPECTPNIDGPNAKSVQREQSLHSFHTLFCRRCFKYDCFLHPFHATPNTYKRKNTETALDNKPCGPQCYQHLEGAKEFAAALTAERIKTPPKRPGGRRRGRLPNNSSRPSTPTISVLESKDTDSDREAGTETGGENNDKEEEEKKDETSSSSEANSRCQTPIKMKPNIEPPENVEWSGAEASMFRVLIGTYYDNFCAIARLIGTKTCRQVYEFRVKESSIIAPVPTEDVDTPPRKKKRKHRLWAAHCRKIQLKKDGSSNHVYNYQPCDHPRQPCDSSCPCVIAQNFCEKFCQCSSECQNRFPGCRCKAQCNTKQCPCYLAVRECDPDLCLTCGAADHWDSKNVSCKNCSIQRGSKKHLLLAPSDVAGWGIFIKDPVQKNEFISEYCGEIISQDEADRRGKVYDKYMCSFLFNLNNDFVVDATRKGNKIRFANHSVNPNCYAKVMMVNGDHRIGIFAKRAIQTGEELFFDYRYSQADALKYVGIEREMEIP
UniProt Q6PDQ2: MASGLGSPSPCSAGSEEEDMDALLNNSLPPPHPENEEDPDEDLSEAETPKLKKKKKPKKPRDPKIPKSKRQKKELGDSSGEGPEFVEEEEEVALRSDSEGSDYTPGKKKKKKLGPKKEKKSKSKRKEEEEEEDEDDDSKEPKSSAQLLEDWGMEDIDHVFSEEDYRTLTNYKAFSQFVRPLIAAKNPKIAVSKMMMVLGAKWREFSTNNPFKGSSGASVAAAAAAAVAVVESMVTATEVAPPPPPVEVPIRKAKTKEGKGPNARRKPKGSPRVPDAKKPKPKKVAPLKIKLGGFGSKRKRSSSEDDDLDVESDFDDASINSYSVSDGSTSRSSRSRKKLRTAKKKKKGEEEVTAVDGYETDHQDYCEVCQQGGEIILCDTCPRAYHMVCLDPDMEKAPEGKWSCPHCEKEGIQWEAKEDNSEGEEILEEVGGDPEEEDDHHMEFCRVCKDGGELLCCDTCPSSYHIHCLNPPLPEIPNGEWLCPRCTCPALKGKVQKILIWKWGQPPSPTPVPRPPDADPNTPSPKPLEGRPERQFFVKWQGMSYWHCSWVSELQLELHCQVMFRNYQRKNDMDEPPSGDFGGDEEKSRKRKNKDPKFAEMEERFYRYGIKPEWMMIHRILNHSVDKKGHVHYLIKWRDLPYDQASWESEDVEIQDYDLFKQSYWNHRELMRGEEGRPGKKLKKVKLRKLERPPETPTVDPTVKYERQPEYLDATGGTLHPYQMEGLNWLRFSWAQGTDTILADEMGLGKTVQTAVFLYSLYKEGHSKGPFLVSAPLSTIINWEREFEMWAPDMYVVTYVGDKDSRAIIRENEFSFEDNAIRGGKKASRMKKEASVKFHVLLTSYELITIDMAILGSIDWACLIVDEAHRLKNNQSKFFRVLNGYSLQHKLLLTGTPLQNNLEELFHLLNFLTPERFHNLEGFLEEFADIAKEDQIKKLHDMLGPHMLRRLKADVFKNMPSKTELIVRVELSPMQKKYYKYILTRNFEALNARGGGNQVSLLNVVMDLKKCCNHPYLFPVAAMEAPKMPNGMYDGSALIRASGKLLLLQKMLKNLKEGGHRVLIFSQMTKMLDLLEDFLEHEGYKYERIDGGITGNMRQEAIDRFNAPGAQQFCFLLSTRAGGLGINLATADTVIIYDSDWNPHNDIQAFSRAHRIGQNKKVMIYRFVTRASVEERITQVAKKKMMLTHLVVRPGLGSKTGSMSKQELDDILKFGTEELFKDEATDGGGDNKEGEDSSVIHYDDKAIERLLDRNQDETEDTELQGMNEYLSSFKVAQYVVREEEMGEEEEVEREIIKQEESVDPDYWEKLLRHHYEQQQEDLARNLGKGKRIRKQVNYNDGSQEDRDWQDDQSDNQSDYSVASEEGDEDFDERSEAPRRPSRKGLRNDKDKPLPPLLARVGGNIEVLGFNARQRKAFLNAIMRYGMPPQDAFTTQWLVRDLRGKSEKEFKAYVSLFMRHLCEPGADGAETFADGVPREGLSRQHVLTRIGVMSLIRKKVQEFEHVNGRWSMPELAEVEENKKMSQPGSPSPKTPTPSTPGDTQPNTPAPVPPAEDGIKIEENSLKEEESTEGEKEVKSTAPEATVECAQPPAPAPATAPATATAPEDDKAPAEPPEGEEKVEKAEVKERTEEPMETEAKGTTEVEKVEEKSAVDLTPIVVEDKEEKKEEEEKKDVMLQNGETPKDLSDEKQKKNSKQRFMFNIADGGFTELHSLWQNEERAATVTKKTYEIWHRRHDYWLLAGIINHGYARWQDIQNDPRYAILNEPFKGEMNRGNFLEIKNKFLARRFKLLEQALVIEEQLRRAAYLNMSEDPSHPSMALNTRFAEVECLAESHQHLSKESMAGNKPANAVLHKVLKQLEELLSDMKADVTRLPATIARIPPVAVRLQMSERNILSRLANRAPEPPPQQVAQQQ

Substance | binding [1] | binding [2] | binding [3] | binding [4] | binding [5] | binding [6] | binding [7] | binding [8] | binding [9] | binding [10] | binding [11]
Ezh2 (from UniProt Q61188 1-746) | binds | binds | binds | binds | no binding | binds | binds | – | – | – | –
Mi2β (CHD4) (from UniProt Q6PDQ2 1-1915) | – | – | – | – | – | binds | binds | no binding | – | – | –
Ikaros (Ik1 isoform) constitutively expressed in ILC87 cells (from UniProt Q03267 1-517) | – | – | – | – | – | – | – | binds | binds | – | –
Ikaros, endogenous in primary WT DN thymocytes (from UniProt Q03267 1-517) | – | – | – | – | – | – | – | – | – | binds | –
Mta2 (from UniProt Q9R190 1-668) | binds | binds | – | – | – | binds | binds | no binding | no binding | – | –
Suz12 (from UniProt Q80U70 1-741) | – | – | binds | binds | no binding | binds | binds | – | – | – | no binding
